Test results published in the supplement of paper PMC9174493.
Some of the results follow. Single values of this set are uncertain. Values with irradiation are relative to irradiated vehicle.

Key:
A549-Dual [1] = experiment: NF-kB reporter (SEAP) activity, viability-corrected, relative to vehicle (fold change vs vehicle); higher = more activation of STING-IRF / NF-kB immune response reporter
A549-Dual [2] = experiment: ISRE reporter (Lucia luciferase) activity, viability-corrected, relative to vehicle (fold change vs vehicle); higher = more activation of STING-IRF / NF-kB immune response reporter
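Wherever NF-kB reporter (SEAP) activity, viability-corrected, relative to vehicle is given: viability correction based on the alamar blue assay, with concentrations leaving 10% survival or less dropped.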

Compound | NF-kB reporter (A549-Dual [1]; 0.1 µM, irradiation: 8 Gy/4 fr) | NF-kB reporter (A549-Dual [1]; 0.1 µM, irradiation: none) | NF-kB reporter (A549-Dual [1]; 0.3 µM, irradiation: 8 Gy/4 fr) | NF-kB reporter (A549-Dual [1]; 0.3 µM, irradiation: none) | NF-kB reporter (A549-Dual [1]; 1 µM, irradiation: 8 Gy/4 fr) | NF-kB reporter (A549-Dual [1]; 1 µM, irradiation: none) | NF-kB reporter (A549-Dual [1]; 3 µM, irradiation: 8 Gy/4 fr) | NF-kB reporter (A549-Dual [1]; 3 µM, irradiation: none) | NF-kB reporter (A549-Dual [1]; 10 µM, irradiation: 8 Gy/4 fr) | NF-kB reporter (A549-Dual [1]; 10 µM, irradiation: none) | ISRE reporter (A549-Dual [2]; 0.1 µM, irradiation: 8 Gy/4 fr) | ISRE reporter (A549-Dual [2]; 0.1 µM, irradiation: none) | ISRE reporter (A549-Dual [2]; 0.3 µM, irradiation: 8 Gy/4 fr) | ISRE reporter (A549-Dual [2]; 0.3 µM, irradiation: none) | ISRE reporter (A549-Dual [2]; 1 µM, irradiation: 8 Gy/4 fr) | ISRE reporter (A549-Dual [2]; 1 µM, irradiation: none) | ISRE reporter (A549-Dual [2]; 3 µM, irradiation: 8 Gy/4 fr) | ISRE reporter (A549-Dual [2]; 3 µM, irradiation: none) | ISRE reporter (A549-Dual [2]; 10 µM, irradiation: 8 Gy/4 fr) | ISRE reporter (A549-Dual [2]; 10 µM, irradiation: none)
c1cc(CN2CCCNCCNCCCNCC2)ccc1CN1CCCNCCNCCCNCC1 [Plerixafor (AMD3100)] | 1.36 | 0.968 | 1.31 | 1 | 0.796 | 0.909 | 1.03 | 0.938 | 1.05 | 1.45 | 1.1 | 1.27 | 1.08 | 1.04 | 1.23 | 1.07 | 1.2 | 1.21 | 1.05 | 0.954
CC(=O)c1c(C)c2cnc(Nc3ccc(N4CCNCC4)cn3)nc2n(C2CCCC2)c1=O.O=S(=O)(O)CCO | 0.865 | 0.877 | 0.764 | 0.965 | 0.882 | 0.942 | 0.773 | 1.11 | 0.72 | 1.28 | 0.883 | 1.56 | 0.715 | 1.56 | 0.839 | 1.69 | 0.735 | 2.56 | 0.583 | 5.05
CC(=O)OC1CCC2(C)C(=CCC3C2CCC2(C)C(c4cccnc4)=CCC32)C1 (stereo not given) [Abiraterone Acetate] | 1.04 | 1.01 | 0.959 | 0.942 | 1.05 | 0.964 | 0.884 | 1.1 | 1 | 0.942 | 1.03 | 0.915 | 0.907 | 0.904 | 0.956 | 0.85 | 0.851 | 0.799 | 0.947 | 0.777
Cl.c1ccc(CN(CC2=NCCN2)c2ccccc2)cc1 [Antazoline HCl] | 0.993 | 0.816 | 0.9 | 0.758 | 0.924 | 0.898 | 1.2 | 0.939 | 1.02 | 0.961 | 0.798 | 0.769 | 0.827 | 0.62 | 0.796 | 0.777 | 0.974 | 0.912 | 1.07 | 1.14
COc1ccc(C2OCC3C(c4cc(OC)c(OC)c(OC)c4)OCC23)cc1OC (stereo not given) [Magnolin] | 0.937 | 0.839 | 0.923 | 0.695 | 0.877 | 0.737 | 1.05 | 0.789 | 0.714 | 0.83 | 0.96 | 0.748 | 0.798 | 0.55 | 0.711 | 0.609 | 0.738 | 0.753 | 0.631 | 0.702
O=C(O)Cc1ccccc1Nc1c(Cl)cccc1Cl [Diclofenac acid] | 0.73 | 0.725 | 0.83 | 0.664 | 0.977 | 0.83 | 1.22 | 0.722 | 0.796 | 0.554 | 0.725 | 0.765 | 0.811 | 0.727 | 0.751 | 0.887 | 0.967 | 0.815 | 0.807 | 0.671
COc1cccc2c1C(=O)c1c(O)c3c(c(O)c1C2=O)CC(O)(C(=O)CO)CC3OC1CC(N)C(O)C(C)O1.Cl (stereo not given) [Doxorubicin (Adriamycin) HCl] | 0.915 | 1.83 | 1.4 | 3.17 | 2.81 | 10.4 | 4.91 | 6.92 | 2.69 | 1.82 | 0.481 | 3.44 | 0.814 | 6.1 | 0.618 | 2.12 | 0.634 | 3 | 0.363 | 0.632
CC1=C(C)C(=O)C(C(CCCCCC(=O)O)c2ccccc2)=C(C)C1=O (stereo not given) [Seratrodast(AA-2414, ABT-001)] | 1.35 | 2.61 | 1.38 | 2.11 | 1.59 | 1.42 | 2.23 | 1.48 | 2.18 | 1.27 | 1.13 | 2.45 | 1.23 | 1.99 | 1.49 | 1.19 | 1.15 | 1.42 | 2.22 | 1.13
Cc1nc(Nc2ncc(C(=O)Nc3c(C)cccc3Cl)s2)cc(N2CCN(CCO)CC2)n1.Cl [Dasatinib hydrochloride] | 0.784 | 1.06 | 0.692 | 0.968 | 0.649 | 1 | 0.721 | 1.19 | 0.625 | 1.01 | 0.398 | 0.898 | 0.215 | 0.472 | 0.176 | 0.419 | 0.176 | 0.306 | 0.181 | 0.404
O=C([O-])Cc1ccccc1Nc1c(Cl)cccc1Cl.[K+] [Diclofenac Potassium] | 0.811 | 1.02 | 0.843 | 1.18 | 1.04 | 0.814 | 0.882 | 0.943 | 0.808 | 0.761 | 0.901 | 0.742 | 0.785 | 0.852 | 0.711 | 0.726 | 0.739 | 1.06 | 0.8 | 0.749
C#Cc1cccc(Nc2ncnc3cc(OCCOC)c(OCCOC)cc23)c1.Cl [Erlotinib HCl (OSI-744)] | 0.959 | 1.11 | 0.915 | 1.21 | 0.84 | 1.31 | 0.782 | 1.28 | 0.887 | 1.02 | 1.02 | 1.32 | 0.885 | 1.15 | 0.963 | 1.39 | 0.867 | 0.915 | 0.963 | 0.856
CCC1(O)CC2CN(CCc3c([nH]c4ccccc34)C(C(=O)OC)(c3cc4c(cc3OC)N(C=O)C3C(O)(C(=O)OC)C(OC(C)=O)C5(CC)C=CCN6CCC43C65)C2)C1.O=S(=O)(O)O (stereo not given) [Vincristine sulfate] | 1.14 | 1.75 | 0.984 | 2.03 | 0.841 | 1.6 | 0.755 | 1.5 | 0.731 | 1.63 | 0.488 | 1.21 | 0.139 | 0.683 | 0.0998 | 0.746 | 0.0704 | 0.673 | 0.0666 | 0.497
O=S1(=O)CCN(CN2CCS(=O)(=O)NC2)CN1 [Taurolidine] | 1.19 | 1.41 | 0.979 | 1.44 | 0.984 | 1.82 | 1.14 | 1.44 | 1.11 | 1.11 | 1.09 | 1.39 | 1.07 | 1.22 | 1.09 | 1.33 | 1.2 | 1.04 | 1.05 | 1.04
O=C(O)CCCCC1CCSS1 (stereo not drawn) [(+)-α-Lipoic acid] | 1.05 | 0.957 | 1.34 | 0.728 | 0.955 | 0.859 | 1.21 | 0.991 | 0.772 | 0.834 | 1.04 | 0.766 | 0.91 | 0.742 | 0.747 | 0.718 | 0.74 | 0.876 | 0.89 | 0.935
COc1ccc(CC(C)(C)NCC(O)c2cc(O)cc3c2OCC(=O)N3)cc1.Cl (stereo not given) [Olodaterol hydrochloride] | 1.2 | 1.41 | 1.01 | 1.3 | 1.35 | 1.01 | 1.51 | 1.02 | 1.29 | 0.949 | 1.18 | 1.35 | 0.976 | 1.15 | 1.1 | 1.02 | 0.95 | 1.13 | 1.29 | 1.05
CC(=O)OCC(CCn1cnc2cnc(N)nc21)COC(C)=O [Famciclovir] | 1.07 | 1.03 | 0.933 | 0.936 | 0.908 | 1.15 | 0.857 | 0.942 | 0.978 | 0.92 | 0.98 | 0.908 | 0.924 | 0.877 | 0.864 | 0.896 | 0.881 | 0.675 | 1.05 | 0.939
COC1CC2CCC(C)C(O)(O2)C(=O)C(=O)N2CCCCC2C(=O)OC(C(C)CC2CCC(O)C(OC)C2)CC(=O)C(C)/C=C(\C)C(O)C(OC)C(=O)C(C)CC(C)/C=C/C=C/C=C/1C (stereo not given) [Rapamycin (Sirolimus)] | 1.47 | 1.23 | 1.32 | 1.37 | 1.57 | 1.25 | 1.19 | 1.27 | 1.35 | 1.22 | 0.93 | 1.32 | 0.802 | 1.36 | 0.946 | 1.42 | 0.925 | 1.52 | 0.933 | 4.66
CCC(=O)OC1(C(=O)CCl)C(C)CC2C3CC(F)C4=CC(=O)C=CC4(C)C3(F)C(O)CC21C (stereo not given) [Halobetasol Propionate] | 0.981 | 0.838 | 1.1 | 0.637 | 1.03 | 0.699 | 0.944 | 0.76 | 0.524 | 1.11 | 0.0654 | 0.184 | 0.0657 | 0.216 | 0.0471 | 0.182 | 0.045 | 0.275 | 0.0587 | 0.282
CCC(=O)NS(=O)(=O)c1ccc(-c2c(-c3ccccc3)noc2C)cc1 [Parecoxib] | 1.28 | 1.27 | 1.18 | 0.98 | 1.12 | 1.02 | 1.24 | 0.883 | 1.12 | 0.97 | 1.12 | 0.893 | 1.06 | 0.792 | 0.841 | 0.916 | 0.853 | 0.965 | 0.837 | 0.885
CC#CC(=O)N1CCCC1c1nc(-c2ccc(C(=O)Nc3ccccn3)cc2)c2c(N)nccn12 (stereo not given) [Acalabrutinib (ACP-196)] | 0.885 | 0.898 | 0.829 | 0.874 | 0.905 | 1.02 | 1.04 | 0.998 | 0.951 | 0.842 | 0.933 | 1.13 | 0.939 | 0.883 | 0.976 | 0.737 | 0.945 | 0.782 | 0.867 | 0.674
CCCCOC(=O)c1ccccc1Nc1cccc(C(F)(F)F)c1 [Ufenamate] | 1.08 | 1.28 | 0.967 | 1.15 | 1.24 | 0.962 | 1.47 | 0.949 | 0.881 | 1 | 1.12 | 1.23 | 1.01 | 0.934 | 0.982 | 0.899 | 0.833 | 0.851 | 0.84 | 0.927
N.N.O=C([O-])C1(C(=O)[O-])CCC1.[Pt+2] [Carboplatin] | 0.909 | 1 | 0.736 | 0.974 | 0.882 | 1.21 | 0.842 | 1.17 | 0.977 | 1.02 | 0.896 | 1.2 | 0.751 | 0.923 | 0.865 | 0.94 | 0.743 | 0.888 | 0.894 | 0.945
CCCCNC(=O)NS(=O)(=O)c1ccc(C)cc1 [Tolbutamide] | 1.17 | 1.07 | 1.01 | 1.2 | 1.03 | 1.41 | 0.881 | 1.25 | 0.963 | 1.18 | 1.05 | 0.87 | 1.09 | 1.05 | 1.09 | 0.997 | 0.952 | 0.89 | 1.06 | 0.985
